# Results as given in PubChem BioAssay AID1645886 (National Center for Advancing Translational Sciences (NCATS), 2021).
# Where “and” joins values, the source holds several entries; their conditions need not be identical. Equal values may be shown once. Out of some 16,000 compounds screened, about 260 (1.6%) were called active. Inconclusive means that the source gave no clear call. Such entries were picked first, then a sample of the others. The call rests on the fitted dose curve; in most records, active means well fitted inhibition curve with a large enough effect; inconclusive means small, poorly fitted or top-dose-only effect; inactive means no such curve, though single readings can be large or run the other way. Where the call is inconclusive, the potency comes from a doubtful curve fit.
# Target: Rap guanine nucleotide exchange factor 4 (Homo sapiens) (UniProt Q8WZA2)
# Experiment: Validation qHTS for antagonist of cAMP-regulated guanine nucleotide exchange factor 4 (EPAC2); further: nearly all actives have a fitted effect of over 40% in size
# Conditions: EPAC2 Rap1B BODIPY-GDP exchange, fluorescence; series mostly up to 112 µM
# Method in brief: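 Fluorescent exchange read-out: 100 nM EPAC2 with 250 nM RAP1B–BODIPY-GDP and 50 uM GDP; BODIPY-GDP release lowers fluorescence. Read at 480/540 nm every 5 min for 30 min at room temperature; normalized to 6.5 mM cAMP.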
# Potency means the concentration at half of the fitted maximal effect; tags describe the fitted curve by direction and shape.
# UniProt Q8WZA2, sequence (Q8WZA2 whole entry, looked up): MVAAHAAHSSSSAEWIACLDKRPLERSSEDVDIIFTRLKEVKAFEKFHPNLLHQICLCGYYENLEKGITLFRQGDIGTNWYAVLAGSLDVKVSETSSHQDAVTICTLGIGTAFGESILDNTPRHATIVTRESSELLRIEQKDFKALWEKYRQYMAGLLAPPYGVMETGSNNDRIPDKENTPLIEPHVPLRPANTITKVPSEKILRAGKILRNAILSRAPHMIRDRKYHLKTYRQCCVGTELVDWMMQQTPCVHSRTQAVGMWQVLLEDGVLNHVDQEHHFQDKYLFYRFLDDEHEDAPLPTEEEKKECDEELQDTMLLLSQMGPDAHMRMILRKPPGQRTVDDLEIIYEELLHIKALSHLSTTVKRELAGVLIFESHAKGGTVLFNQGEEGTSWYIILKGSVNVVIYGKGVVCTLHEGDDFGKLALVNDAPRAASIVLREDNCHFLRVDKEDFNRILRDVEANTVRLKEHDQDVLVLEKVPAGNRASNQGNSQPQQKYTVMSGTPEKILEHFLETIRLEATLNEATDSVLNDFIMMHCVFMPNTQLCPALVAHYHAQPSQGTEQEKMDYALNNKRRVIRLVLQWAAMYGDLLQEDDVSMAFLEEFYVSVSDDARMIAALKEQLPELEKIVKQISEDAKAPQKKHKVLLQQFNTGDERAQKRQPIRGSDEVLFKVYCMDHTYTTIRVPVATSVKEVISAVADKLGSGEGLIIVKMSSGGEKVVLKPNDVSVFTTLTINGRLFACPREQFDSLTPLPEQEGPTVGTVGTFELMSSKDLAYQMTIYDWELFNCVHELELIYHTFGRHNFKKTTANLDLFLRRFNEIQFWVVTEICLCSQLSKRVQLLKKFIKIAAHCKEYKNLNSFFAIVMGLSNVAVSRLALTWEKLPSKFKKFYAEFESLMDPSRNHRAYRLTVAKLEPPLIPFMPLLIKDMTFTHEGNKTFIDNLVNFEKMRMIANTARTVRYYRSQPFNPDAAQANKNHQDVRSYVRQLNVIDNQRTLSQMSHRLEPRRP
row,SMILES,Potency
1,CCCN1CCC(=O)N([C@H](CO)c2ccccc2)CC1,"inconclusive: 89.1 µM [inhibitor, single point]"
2,O=C(NCC1Cc2cccc(-c3cnccn3)c2O1)c1ccc2c(c1)OCCO2 (stereo unspecified),inactive
3,COc1ccccc1N1CCN(C[C@@H](O)COc2cccc3ccccc23)CC1,"inconclusive: 79.4 µM [inhibitor, partial curve]"
4,COC(=O)C1=C(C)NC(C)=C([N+](=O)[O-])[C@@H]1c1ccccc1C(F)(F)F,active: 39.8 µM
5,Cc1cccc(CNc2ccnc(-c3ccccc3C(F)(F)F)n2)c1,"inconclusive: 44.7 µM [inhibitor, partial curve, poor fit]"
6,CSc1ncccc1C(=O)NCC1Cc2cc(-c3cnccn3)cc(Cl)c2O1 (stereo unspecified),"inconclusive: 7.08 µM [inhibitor, full curve]"
7,N#Cc1cccc(NC(=O)N2CCCC3(CCN(C(=O)c4cc(C(F)(F)F)cc(C(F)(F)F)c4)CC3)C2)c1,"inconclusive: 89.1 µM [inhibitor, partial curve, poor fit]"
8,Cc1cnc(CNc2ncnc3ccc(-c4ccccc4Cl)cc23)cn1,"inconclusive: 89.1 µM [inhibitor, partial curve, poor fit]"
9,COC(=O)c1ccccc1-c1cc(C)cc2c1OC(CNC(=O)c1ccn(C)n1)C2 (stereo unspecified),"inconclusive: 10 µM [inhibitor, partial curve, poor fit]"
10,Cc1cnc(C)c(-c2cccc3c2OC(CNC(=O)CN2C(=O)c4ccccc4C2=O)C3)n1 (stereo unspecified),"inconclusive: 89.1 µM [inhibitor, single point]"
11,COc1ccc(NC(=O)c2ccc(-c3ccc(-c4noc(C)n4)cc3C)cc2)cc1N1CCN(C)CC1,"inconclusive: 63.1 µM [inhibitor, partial curve, poor fit]"
12,COc1cccc(-c2cc(NCc3ccc(OC)cc3OC)ncn2)c1,"inconclusive: 50.1 µM [inhibitor, partial curve]"
13,CCC1NC(=O)c2cc(S(N)(=O)=O)c(Cl)cc2N1 (stereo unspecified),"inconclusive: 1 µM [inhibitor, full curve, poor fit]"
14,O=C(Cc1ccccc1)Nc1nc2ccc(Cl)cc2c2nc(-c3ccco3)nn12,"inconclusive: 79.4 µM [inhibitor, partial curve, poor fit]"
15,O=C(NC(c1cccnc1)C(F)(F)F)c1cnn(-c2nccc(-c3cccs3)n2)c1C1CC1 (stereo unspecified),inactive
16,O=S(=O)(O)c1cc(I)c(O)c2ncccc12,inactive
17,COC(=O)C[C@H]1c2cc(C(F)(F)F)ccc2S(=O)(=O)N1C(C)C,"inconclusive: 63.1 µM [inhibitor, partial curve, poor fit]"
18,COc1cc(-c2cccc(Cl)c2)cc2c1OCCN(C(=O)CCn1ccc(C)n1)C2,"inconclusive: 100 µM [inhibitor, single point]"
19,COc1ccc(C(=O)c2ccccc2O)c(O)c1,"active: 44.7 µM and inconclusive: 31.6 µM [inhibitor, single point]"
20,CCCCC[C@H](O)C=C[C@H]1[C@H](O)CC(=O)[C@H]1CCCCCCC(=O)O,active: 56.2 µM
21,COc1ccc(CNc2ncncc2-c2ccc(N(C)C)cc2)c(OC)c1,"inconclusive: 20 µM [inhibitor, full curve, poor fit]"

row,SMILES,Potency
1,COc1ccc(O)c(C(=O)N2CCC3(CC2)c2ccccc2[C@@H](NC(=O)c2ccccn2)[C@@H]3OC)c1,inactive
2,O=C(c1cnccn1)N1CCC2(CC1)CCN(c1cccc(-c3ccccc3)c1)CC2,"inconclusive: 39.8 µM [inhibitor, partial curve, poor fit]"
3,CC(=O)Nc1ccc(SCCN2CC[C@@H](C(C)(C)C)CCC2=O)cc1,"inconclusive: 6.31 µM [inhibitor, partial curve, poor fit]"
4,C#CCN(C1CCCC1)S(=O)(=O)C=C,inactive
5,COC(=O)N1CCC2(CCCN(C(c3ccccc3)c3ccccc3)C2)CC1,"inconclusive: 44.7 µM [inhibitor, full curve, poor fit]"
6,COc1ccc(CN2CCN(C(c3ccc(F)cc3)c3ccc(F)cc3)CC2)c(OC)c1OC,"inconclusive: 0.562 µM [inhibitor, full curve, poor fit]"
7,CC(C)C[C@@H](CN=[N+]=[N-])N1CCN(CC(C)C)CCC1=O,"inconclusive: 79.4 µM [inhibitor, single point]"
8,O=c1c(O)c(-c2ccc(O)c(O)c2)oc2cc(O)cc(O)c12,"inconclusive: 31.6 µM [inhibitor, partial curve, poor fit] and inconclusive: 39.8 µM [inhibitor, partial curve]"
9,CCOC(=O)C1=C(O)C(=O)N(Cc2ccccc2)C1,"inconclusive: 89.1 µM [inhibitor, partial curve, poor fit]"
10,O=C1CCC[C@@H]2Cc3nc4ccc(O)cc4cc3[C@@H]3CCN1[C@H]23,"inconclusive: 31.6 µM [inhibitor, partial curve, poor fit]"
11,COc1ccc2c(c1)C[C@]1(C)c3ccccc3C(=O)N(Cc3ccccc3)[C@H]21,"inconclusive: 56.2 µM [inhibitor, single point]"
12,CN=C(N)NC(=O)Nc1c(C)cccc1C,inactive
13,COc1ccc(Oc2ncc3nc(-c4ccc(Cl)cc4)c(=O)n(CCC#N)c3n2)cc1,inactive
14,CCNc1ncc2nc(-c3cccs3)c(=O)n(-c3ccccc3)c2n1,"inconclusive: 89.1 µM [inhibitor, single point]"
15,O=C(C[C@H]1C(=O)N(C2CCCCC2)C[C@@H]1Cc1ccccc1)Nc1ccccc1,"inconclusive: 56.2 µM [inhibitor, partial curve, poor fit]"
16,O=C(OCCOCCO)c1ccccc1Nc1cccc(C(F)(F)F)c1,inactive
17,COc1ccc2cccc(N3CCN(CCNC(=O)c4ccc(F)cc4)CC3)c2c1,"inconclusive: 50.1 µM [inhibitor, partial curve]"
18,Cc1ccc2occ(CN3CCOc4ccc(C(C)(O)COc5ccccc5)cc4C3)c(=O)c2c1 (stereo unspecified),"inconclusive: 79.4 µM [inhibitor, partial curve, poor fit]"
19,O=c1c(-c2ccc(F)cc2)nc2cncnc2n1-c1ccccc1,inactive
20,COC(=O)C1=C(C)NC(C)=C(C(=O)OCCSc2ccccc2)[C@@H]1C,"inconclusive: 50.1 µM [inhibitor, partial curve]"
21,C[C@@H]1[C@H](c2ccccc2)OCCS(=O)(=O)N1Cc1ccc(F)cc1,"inconclusive: 0.501 µM [inhibitor, full curve, poor fit]"

row,SMILES,Potency
1,C=C(c1ccc(C(=O)O)cc1)c1cc2c(cc1C)C(C)(C)CCC2(C)C,"inconclusive: 44.7 µM [inhibitor, partial curve]"
2,O=C(Nc1cc(C(=O)N2CCN(CCO)CC2)c2c(c1)ncn2C1CCCC1)c1ccccc1,"inconclusive: 15.8 µM [inhibitor, partial curve, poor fit]"
3,CC(CN1c2ccccc2Sc2ccc(S(=O)(=O)N(C)C)cc21)N(C)C (stereo unspecified),inactive
4,Cc1nc(NCc2cnn(C)c2)sc1-c1ccn(-c2cccc(F)c2)n1,"inconclusive: 100 µM [inhibitor, single point]"
5,CCN(CC)c1ccccc1/C=C/[n+]1ccc(CCCCI)c2ccccc21,active: 56.2 µM
6,COC(=O)c1ccccc1-c1cc(C)cc2c1OC(CNC(=O)c1cc(C)n(C)n1)C2 (stereo unspecified),"inconclusive: 0.891 µM [inhibitor, full curve, poor fit]"
7,CCc1oc2ccccc2c1C(=O)c1cc(Br)c(O)c(Br)c1,active: 44.7 µM
8,CC/C(=C(\c1ccccc1)c1ccc(OCCN(C)C)cc1)c1ccccc1,"inconclusive: 3.55 µM [inhibitor, partial curve, poor fit] and inconclusive: 50.1 µM [inhibitor, partial curve, poor fit]"
9,c1ccc2oc(C3=NCCN3)cc2c1,inactive
10,CC(C)C[C@@H](CO)N(Cc1ccccc1)S(=O)(=O)N(Cc1ccccc1)[C@H](CO)CC(C)C,"inconclusive: 31.6 µM [inhibitor, partial curve]"
11,COc1cc(-c2ccc(C(F)(F)F)cn2)cc2c1OCCN(S(=O)(=O)C[C@]13CC[C@H](CC1=O)C3(C)C)C2,"inconclusive: 39.8 µM [inhibitor, single point]"
12,COc1ccccc1-c1ccc2ncnc(NCc3ccccc3)c2c1,"inconclusive: 50.1 µM [inhibitor, partial curve]"
13,COc1ccc(OC)c(-c2cc(Cl)c3c(c2)CC(CNC(=O)C(C)N2CCOCC2)O3)c1 (stereo unspecified),inactive
14,Cc1ccccc1CN1Cc2cccc3c2[C@H](C=CC3)CC1=O,"inconclusive: 56.2 µM [inhibitor, partial curve, poor fit]"
15,c1cn(-c2cc(-c3ccc4c(c3)OCO4)ncn2)cn1,"inconclusive: 39.8 µM [inhibitor, partial curve]"
16,Cc1ccc(C)c(CN2C[C@H](Sc3nc4ccccc4[nH]3)C[C@H]2C(=O)N2CCCN(C)CC2)c1,inactive
17,C[C@@H]1CN(Cc2ccc3c(c2)CN(C(=O)CCc2nc4ccc(F)cc4[nH]2)CCO3)C[C@H](C)O1,"inconclusive: 89.1 µM [inhibitor, single point]"
18,COc1cc(/C(C)=C/c2ccccc2)c2c(c1)oc1ccccc12,"inconclusive: 89.1 µM [inhibitor, single point]"
19,CC(C)[C@H](N)C(=O)OCC(CO)OCn1cnc2c(=O)[nH]c(N)nc21 (stereo partly specified),"inconclusive: 25.1 µM [inhibitor, single point]"
